Results published in PubChem BioAssay AID485344 (National Center for Advancing Translational Sciences (NCATS), 2010).
“And” between values parts separate entries of the source, which are not always exact repeats. Identical values can stand only once. The campaign covered roughly 340,000 compounds. About 6,900 (2%) were called active. No stated cut-off is given here; in the data, active means inhibition above about 30%; inactive means below that, where a call was filed. Only a part is listed here, and it is no random draw. The source gives no active or inactive call for entries shown without one.

molecular target: D(2) dopamine receptor (Homo sapiens) (UniProt P14416); test: HTS Assay for Allosteric Antagonists of the Human D2 Dopamine Receptor: Primary Screen for Antagonists; details: HEK293 TREx D2 cells, calcium flux, dopamine EC80; at 10 µM; stronger effect = higher value; further: 0% is about no effect
Summary of the method: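 Read-out: kinetic calcium fluorescence (1 cycle/s) in inducible HEK293 T-REx D2 cells after an EC80 dopamine addition that followed 180 s compound preincubation. Loss of the dopamine response indicates antagonism.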

Sequence of UniProt P14416 (P14416 whole entry, looked up): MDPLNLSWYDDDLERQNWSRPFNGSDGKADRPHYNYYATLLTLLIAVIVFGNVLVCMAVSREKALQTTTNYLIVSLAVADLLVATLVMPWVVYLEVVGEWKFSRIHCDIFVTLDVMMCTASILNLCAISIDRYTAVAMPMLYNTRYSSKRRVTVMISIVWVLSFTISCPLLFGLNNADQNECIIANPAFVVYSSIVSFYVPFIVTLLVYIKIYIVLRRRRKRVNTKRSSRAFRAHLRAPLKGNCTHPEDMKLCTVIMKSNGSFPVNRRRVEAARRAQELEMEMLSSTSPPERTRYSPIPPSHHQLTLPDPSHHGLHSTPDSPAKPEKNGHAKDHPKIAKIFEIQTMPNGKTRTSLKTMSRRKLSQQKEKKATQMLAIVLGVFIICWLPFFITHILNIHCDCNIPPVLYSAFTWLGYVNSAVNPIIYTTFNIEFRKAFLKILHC

SMILES | inhibition
O=C(C1CCN(S(=O)(=O)c2cccc3nonc23)CC1)N1CCN(c2ccccc2)CC1 | 6.53%
CCOc1ccc(CNC(=O)c2ccc(CS(=O)c3ccccc3)o2)cc1 (stereo unspecified) | 14.1%
CN1CCN(CCCN2c3ccccc3Sc3ccc(C(F)(F)F)cc32)CC1 | active: 84.8% and active: 79.1%
Cc1cc(NC(=O)CSc2nc(-c3ccccc3F)nc3c2c(=O)n(C)c(=O)n3C)no1 | 12.6%
CCCSc1nc2sc3c(c2c(=O)n1-c1ccccc1)CCC(C)C3 (stereo unspecified) | -12.1%
Cc1nc(-c2nc(-c3c(C(=O)NNC(=O)Nc4cccc(Cl)c4)noc3C)cs2)cs1 | active: 49.3%
COC(=O)c1cccc(NC(=O)C2CCN(S(=O)(=O)Cc3ccccc3)CC2)c1C | 8.15%
COc1cc2nc(SCc3ccc(Cl)cc3)n3nc(CCn4nc(C)cc4C)nc3c2cc1OC | 1.17%
CC(=O)c1sc2c(c1C)c(=O)n(-c1ccc(Cl)cc1)c(=O)n2Cc1cc(=O)n2cc(Cl)ccc2n1 | 5.73%
Cc1nn(C(=O)c2ccc(Cl)cc2)c(C)c1Sc1ccc(Cl)cc1 | -4.98%
O=C(CSc1ncc(CO)n1Cc1ccccc1)Nc1nc2ccccc2s1 | 10.5%
O=C(NC1CC(=O)N(c2ccc(F)cc2)C1)c1cccs1 (stereo unspecified) | -6.85%
COc1ccc(CNC(=O)C2CCN(c3nc4ccccc4[nH]3)CC2)c(OC)c1 | 4.24%
COc1cc(CN(C(=O)COc2ccc(Br)cc2)c2ccccn2)cc(OC)c1OC | -0.411%
COc1cc(C(=O)Nc2nnc(S(=O)(=O)N(C)c3ccccc3)s2)cc(OC)c1OC | 5.42%
Cc1ccc(-c2nc3n(n2)C(c2ccccc2C)C=C(c2ccc(Cl)cc2)N3)cc1 (stereo unspecified) | -2.89%
COc1cc(C(=O)NCC(c2ccc(N(C)C)cc2)N2CCc3ccccc32)cc(OC)c1OC (stereo unspecified) | 4.7%
COc1ccccc1CNC(=O)CS(=O)(=O)c1cccc2nsnc12 | 10.6%
COc1ccc(CNC(=O)c2cc3c(=O)[nH]c4ccc(C)cc4c3s2)c(OC)c1 | 5.62%
COc1ccc(CCNC(=O)c2cc(-c3ccc(C)cc3)nc3n[nH]c(-c4ccccc4)c23)cc1OC | 27.9%
COc1ccc(OC)c(NC(=O)CCn2cnnn2)c1 | 1.49%

SMILES | inhibition
Cc1ccc(C)c(N2CCN(C(=O)c3cc4ccc5cccnc5c4[nH]3)CC2)c1 | -7.23%
Cc1cc(C)cc(NC(=O)CN2C(=O)CSc3ccc(S(=O)(=O)N(C)C)cc32)c1 | 3.09%
Cc1ccc(OCC(=O)Nc2ccc(Cl)c(-c3nc4ncccc4o3)c2)cc1C | -6.83%
CCOC(=O)c1c(C)oc2ncnc(Nc3ccc(F)cc3Cl)c12 | -4.09%
COc1ccc(-c2nsc(NC(=O)COc3ccc(C)c(C)c3)n2)cc1 | -4.74%
CCc1ccccc1NC(=O)C1(S(=O)(=O)c2ccc(Cl)cc2)CC1 | 21.2%
COc1cc(O)c(C(CCN2CCN(c3ccccc3)CC2)c2ccc3c(c2)OCO3)c(OC)c1 (stereo unspecified) | active: 75.2%
CCCCCNC(=O)c1c[nH]c2ccc(S(=O)(=O)N3CCC(C)CC3)cc2c1=O | 2.78%
CCC1CN(C(=O)NCc2ccc(C)cc2)c2cc(C)ccc2O1 (stereo unspecified) | 14.5%
Cc1nn(S(=O)(=O)c2ccc(C(C)C)cc2)c(C)c1S(=O)(=O)N1CCCCCC1 | -5.31%
Cc1ccc(NC(=O)CSc2nc3ccccc3nc2Cc2ccccc2F)cc1F | 10.2%
COc1ccccc1CNC(=O)CCn1c(=O)c2ccccc2n(CC(=O)Nc2ccc(C)cc2)c1=O | 0.457%
Cc1cccc(CNC(=O)C2CCCN(S(=O)(=O)c3cn(C)cn3)C2)c1 (stereo unspecified) | 0.673%
CCCCCn1c(=O)[nH]c2cc(C(=O)Nc3cc(OC)cc(OC)c3)ccc2c1=O | -7.62%
Cc1ccc2oc(=O)c3cc(C(=O)N4CCN(c5ccccc5)CC4)sc3c2c1 | 20.8%
CN(C)S(=O)(=O)c1ccc2c(c1)N(CC(=O)NCc1ccccc1)C(=O)C1CCCCN21 (stereo unspecified) | -9.51%
COC(=O)c1cc2oc3ccccc3c2n1Cc1cccc(C)c1 | -12.3%
Cc1ccccc1CCNC(=O)c1ccc2c(c1)c(C)c(C)n2C | 4.74%
Cc1ncc([N+](=O)[O-])n1Cc1ccccc1F | active: 31.5%
Cc1cccc(-c2nc(SCC(=O)Nc3cc(C)on3)c3c(=O)n(C)c(=O)n(C)c3n2)c1 | 6.78%
COCCCNC(=O)c1ccc2c(c1)N=C(C)c1c(C)ccc(C)c1S2 | -8.54%

SMILES | inhibition
COc1ccc(N2CCN(c3ccc(-c4nc(-c5ccccc5C)no4)cc3[N+](=O)[O-])CC2)cc1 | 6.48%
Cc1nc2c(c(C)c1CCC(=O)Nc1cccc(C(F)(F)F)c1)c(=O)n(C)c(=O)n2C | -7.04%
CC1CCCN(S(=O)(=O)c2cc3c(cc2Cl)NC(=O)CO3)C1 (stereo unspecified) | 4.27%
CC(=O)Nc1ccc(S(=O)(=O)N2CCCN(S(=O)(=O)c3ccc(C)cc3)CC2)cc1 | active: 30.7%
Cc1nnc(NC(=O)CSc2nccn2-c2cccc(Cl)c2)s1 | -10.4%
COc1cc(OC)c(Nc2nc3ccc(C)cc3n3nnnc23)cc1Cl | -3.1%
COc1ccc(C(=O)Nc2ccccc2C(=O)OCc2cc(=O)n3c4c(sc3n2)CCCC4)cc1 | -9.44%
COc1ccc(-c2cc(=O)n3[nH]cnc3n2)cc1 | 5.01%
COc1ccccc1CNc1nc2nc(C)c(Cl)c(C)n2n1 | 19.3%
COC(=O)c1c(NC(=O)c2cccc(OC)c2)sc2c1CCC(C(C)(C)C)C2 (stereo unspecified) | 9.72%
CCOc1ccccc1NC(=O)c1cn(C2CCCC2)c(=O)c2c1c1ccccc1n2C | -22.2%
COc1ccccc1NC(=O)C1=C(C)Nc2nc(SCc3ccccc3)nn2C1c1ccccn1 (stereo unspecified) | 9.81%
CCN(CC)S(=O)(=O)c1ccc2c(c1)N(CC(=O)NCCc1ccc(OC)c(OC)c1)C(=O)CO2 | -26.4%
COc1cc2[nH]c(C(=O)NCCc3ccccc3)cc2c(OC)c1OC | active: 79.1%
COc1ccc(-n2c(=O)c3sc4ccccc4c3n(CC(=O)Nc3cccc(C)c3)c2=O)cc1 | -18.8%
Cc1ccc(NC(=O)C(Cc2ccccc2)NS(=O)(=O)c2ccc3c(c2)oc(=O)n3C)c(Cl)c1 (stereo unspecified) | -1.19%
COc1ccccc1NC(=O)c1cc(S(=O)(=O)N(C)C2CCCCC2)ccc1F | -19.7%
CC1=C(C(=O)Nc2ccccc2C)C(c2cccnc2)n2nc(SCc3ccccc3)nc2N1 (stereo unspecified) | 20.3%
COCCNC(=O)Cn1cc(S(=O)(=O)Cc2ccccc2Cl)c2ccccc21 | 9.66%
